{"source": "ChEMBL document CHEMBL4888484", "about": "“Replenishing the malaria drug discovery pipeline: Screening and hit evaluation of the MMV Hit Generation Library 1 (HGL1) against asexual blood stage Plasmodium falciparum ,using a nano luciferase reporter read-out” (2022)", "note": "Among all 150,000 compounds or so, about 540 (0.36%) showed an effect of 50% or more. The list shows a part of the results."}
{"test_system": "Plasmodium falciparum", "experiment": "Primary screen in NF54 nanoGlo assay, in single point, at 2uM, 72h; a lower Z score goes with more inhibition", "format": "functional, Erythrocyte", "conditions": "timepoint 72 hour", "units": {"% Inhibition": "%"}}
{"smiles": "Clc1ccc2c(-c3cccc(CO[C@H]4CCOC4)c3)cnn2c1", "% Inhibition": -3, "Z score": 0.43}
{"smiles": "COc1ccc(CN(C)[C@@H](C)c2ccncn2)cn1", "% Inhibition": -18, "Z score": 2.37}
{"smiles": "Cc1ncccc1C(=O)NCC1(N2CCCC2)CCCC1", "% Inhibition": -18, "Z score": 1.75}
{"smiles": "COc1cccc([C@H]2CC(=O)Nc3c2c(=O)[nH]n3C(C)C)c1", "% Inhibition": -14, "Z score": 1.79}
{"smiles": "O=C(CN1C(=O)[C@@H]2C[C@H](O)CN2C(=O)c2ccccc21)Nc1ccc(Cl)c(Cl)c1", "% Inhibition": 1, "Z score": -0.15}
{"smiles": "Cc1ccc(C(=O)NCc2ccc3c(c2)CCN3C(=O)c2ccccc2)cc1", "% Inhibition": -5, "Z score": 1.02}
{"smiles": "O=C1[C@@H]2C[C@@H](CN2C(=O)c2cnccn2)Oc2ccccc2N1Cc1cccnc1", "% Inhibition": 0, "Z score": 0.01}
{"smiles": "O=C1Nc2ccccc2Oc2cc(NC3CCCC3)c(S(=O)(=O)N3CCOCC3)cc21", "% Inhibition": -10, "Z score": 1.36}
{"smiles": "COc1ccc(CCNC(=O)C2CC(c3ccccc3)CN(C(=O)c3ccccc3F)C2)cc1", "note": "(stereo unspecified)", "% Inhibition": -7, "Z score": 0.83}
{"smiles": "O=C1c2ccccc2C(=O)N1c1ccc(-n2nncc2-c2ccc(Cl)cc2)cc1", "% Inhibition": -4, "Z score": 0.9}
{"smiles": "Cc1c(F)cccc1NC(=O)C1CCN(C2CC2)CC1", "% Inhibition": -7, "Z score": 0.81}
{"smiles": "CC#CCCNC(=O)c1cccnc1C", "% Inhibition": -5, "Z score": 0.66}
{"smiles": "Cc1nc(CN(CC#N)S(=O)(=O)N(C)C)sc1C", "% Inhibition": -10, "Z score": 1.02}
{"smiles": "N#Cc1cccc(-c2n[nH]c3c2CN(c2ccc(-c4ccccc4)nn2)CC3)c1", "% Inhibition": 29, "Z score": -15.5}
{"smiles": "Cc1ccccc1C(=O)N1[C@H](C(=O)N2CCCC2)COC12CCN(C(=O)c1ccco1)CC2", "% Inhibition": -12, "Z score": 1.7}
{"smiles": "COC(=O)C12CCCC1CN(CC(C)c1ccccc1)C2", "note": "(stereo unspecified)", "% Inhibition": -12, "Z score": 1.49}
{"smiles": "CN(C)c1ncc(CNc2cccc3oc(C(F)(F)F)nc23)cn1", "% Inhibition": 3, "Z score": -0.44}
{"smiles": "CCN1CC(=O)N[C@H]2CN(C(=O)CO)CC[C@@H]2OCc2cccc(c2)Oc2cc(OC(C)C)cc(c2)C1=O", "% Inhibition": -9, "Z score": 1.68}
{"smiles": "CCn1c(N2CCC[C@H](C(=O)NCC3CCN(Cc4cccc(C)c4)CC3)C2)cc(=O)n(C)c1=O", "% Inhibition": -2, "Z score": 0.38}
{"smiles": "c1ccc(CCc2nc(CN3CCC4(C3)OCCO4)cs2)cc1", "% Inhibition": -10, "Z score": 1.04}
{"smiles": "Cc1sc(-c2ccno2)cc1S(=O)(=O)Nc1cccc(C(F)(F)F)c1", "% Inhibition": 2, "Z score": -0.21}
{"smiles": "Cc1ncoc1CNS(=O)(=O)C1Cc2ccccc2C1", "% Inhibition": 5, "Z score": -0.8}
{"smiles": "CCc1nc(Cn2cc([C@H](O)c3ccccc3)cn2)no1", "% Inhibition": -15, "Z score": 2.38}
{"smiles": "FC(F)(F)c1ccnc(NC2CCN(CC3CC3)CC2)c1", "% Inhibition": -5, "Z score": 0.98}
{"smiles": "CNS(=O)(=O)c1cc(-c2ccc(OC3CC3)cc2)ccc1C", "% Inhibition": -17, "Z score": 2.38}
{"smiles": "CC1(C)CN(C(=O)c2cc3n(n2)CCCO3)c2ccc(Br)cc2O1", "% Inhibition": 5, "Z score": -0.88}
{"smiles": "O=C(NC1CC(c2cccc(Cl)c2)C1)C1=NN(CCO)C(=O)CC1", "note": "(stereo unspecified)", "% Inhibition": -8, "Z score": 1.34}
{"smiles": "COc1cccc(N2CCN(C(=O)c3ccc(C)nc3C3CCN(C(=O)c4c(F)cccc4F)CC3)CC2)c1", "% Inhibition": -12, "Z score": 2.4}
{"smiles": "COc1ccc(N2C(=O)C3ON(c4ccccc4)C(c4ccncc4)C3C2=O)cc1", "note": "(stereo unspecified)", "% Inhibition": 1, "Z score": -0.15}
{"smiles": "CC(C)(C(=O)NCc1ccc(S(C)(=O)=O)s1)C(F)(F)F", "% Inhibition": 0, "Z score": 0.06}
{"smiles": "O=C(NCc1cc(F)c(Cl)cc1F)[C@H]1C[C@@H]1C(F)(F)F", "% Inhibition": -10, "Z score": 1.21}
{"smiles": "CCN1N=C(C(=O)Nc2ccc(NC(=O)C(C)C)cc2)CC1=O", "% Inhibition": 4, "Z score": -0.71}
{"smiles": "Cc1cc(OCc2ccc(C(=O)NC3CCCCCC3)o2)ccc1Cl", "% Inhibition": 6, "Z score": -0.86}
{"smiles": "CC(NC(=O)C1CCC(=O)NC1)c1nnc2n1CCCCC2", "note": "(stereo unspecified)", "% Inhibition": -8, "Z score": 1.11}
{"smiles": "COC(=O)c1n[nH]cc1-c1cc(-c2ccc(O)cc2C)nc(N)c1C#N", "% Inhibition": 12, "Z score": -1.59}
{"smiles": "CNC(=NC[C@H](C)N(C)c1ccccc1)NC", "% Inhibition": -13, "Z score": 2.4}
{"smiles": "Cc1cc(NC(=O)C2CC(c3cccs3)NS(=O)(=O)N2C)no1", "note": "(stereo unspecified)", "% Inhibition": -7, "Z score": 0.76}
{"smiles": "COC[C@H](C)NC(=O)CN(C)C1CCC(C)CC1", "note": "(stereo partly specified)", "% Inhibition": -9, "Z score": 0.94}
{"smiles": "COC(=O)[C@]1(F)CCN(Cc2cnc(CC(C)C)s2)C1", "% Inhibition": -9, "Z score": 0.82}
{"smiles": "O=C(N[C@@H](N1CCCCC1)C(Cl)(Cl)Cl)c1cccnc1", "% Inhibition": 40, "Z score": -5.14}
{"smiles": "Cc1cc(C)c(C(=O)N2CCS(=O)(=O)C3CCCC32)o1", "note": "(stereo unspecified)", "% Inhibition": 12, "Z score": -1.45}
{"smiles": "O=C(NCC(F)(F)F)N1CCOC(C2CCCO2)C1", "note": "(stereo unspecified)", "% Inhibition": 0, "Z score": 0.05}
{"smiles": "O=C(N[C@H]1CS(=O)(=O)Cc2ccccc21)c1cnn(CCF)c1", "% Inhibition": -6, "Z score": 0.86}
{"smiles": "Cc1ncc(Cl)c(C(=O)Nc2nc(-c3cccc(C#N)c3)cs2)n1", "% Inhibition": -7, "Z score": 1.07}
{"smiles": "COCC(=O)N1CC[C@H]2CN(Cc3cccc(F)c3F)C[C@@]2(CO)C1", "% Inhibition": -13, "Z score": 1.78}
{"smiles": "COc1cccc(CC(=O)Nc2ccc(Cn3cnc(C(=O)Nc4cc(C)ccc4OC)c3)cc2)c1", "% Inhibition": -16, "Z score": 1.88}
{"smiles": "Cc1ccc2[nH]c(C3CN(C(=O)NCCCc4ccccc4)C3)nc2c1", "% Inhibition": -12, "Z score": 2.33}
{"smiles": "Cc1ccc([C@H](C)NC(=O)C(=O)c2cccnc2)nc1", "% Inhibition": -9, "Z score": 1.52}
{"smiles": "O=C(NC1CC1)C1CN(C(=O)c2c[nH]c3ccccc23)C1", "% Inhibition": -10, "Z score": 1.17}
{"smiles": "COCCNCCCOc1ccc(Br)cc1C", "% Inhibition": -8, "Z score": 1.02}
{"smiles": "COc1ccc(NC(=O)[C@@H]2CC(=O)Nc3nc(N4CCCCC4)nc(N)c32)cc1", "% Inhibition": -13, "Z score": 2.43}
{"smiles": "CCc1ccccc1CN1C[C@@H](CN2CCCCC2)[C@@H](CO)C1", "% Inhibition": -1, "Z score": 0.13}
{"smiles": "Cc1noc(C)c1CN(C)C(=O)c1cc(CC(C)C)no1", "% Inhibition": -5, "Z score": 0.58}
{"smiles": "CCN1CCN(C(=O)c2ccccc2N2CCC(NC(=O)c3cccc(Br)c3)CC2)CC1", "% Inhibition": 48, "Z score": -8.05}
{"smiles": "COc1ccc(CN2CCN(Cc3cccn3-c3cccnc3)C[C@@H]2CCO)cc1C", "% Inhibition": 13, "Z score": -1.49}
{"smiles": "O=C(Nc1cnn(-c2ccccn2)c1)N[C@H]1CCc2ncnn2C1", "% Inhibition": -1, "Z score": 0.21}
{"smiles": "CC[C@]1(C)NC(=O)N(CCCNc2cccc(C)n2)C1=O", "% Inhibition": -13, "Z score": 1.35}
{"smiles": "O=C(C1CCN(c2nccs2)CC1)N1CCC(c2nc3ccccc3o2)CC1", "% Inhibition": -24, "Z score": 2.96}
{"smiles": "COCCOC(=O)NC[C@@H]1C[C@H](F)CN1C(=O)c1sc(C)nc1C", "% Inhibition": -1, "Z score": 0.13}
{"smiles": "O=C(O)c1ccc(CN2C[C@@H](F)[C@@H](OCc3nc4ncccc4[nH]3)C2)cc1", "% Inhibition": 30, "Z score": -3.39}
{"smiles": "CN(CCCn1cccn1)Cc1nc(C(F)(F)F)no1", "% Inhibition": -9, "Z score": 0.87}
{"smiles": "COc1cc(-c2cc(C(=O)Nc3ccc(Cl)c(S(=O)(=O)Nc4cccc(Cl)c4)c3)c3ccccc3n2)cc(OC)c1OC", "% Inhibition": 8, "Z score": -1.65}
{"smiles": "O=C(c1ccc2ccccc2c1)[C@@H]1[C@@H]2CCCN2[C@]2(C(=O)Nc3ccc(Cl)cc32)[C@@]12C(=O)Nc1ccccc12", "% Inhibition": 35, "Z score": -3.94}
{"smiles": "Cn1cccc1-c1nc2cc(N)ccc2[nH]1", "% Inhibition": -3, "Z score": 0.34}
{"smiles": "COCCN(Cc1cncs1)C(=O)C1CCOC1C", "note": "(stereo unspecified)", "% Inhibition": -10, "Z score": 1.82}
{"smiles": "CN(CC(=O)Nc1ccc(F)cc1)C(=O)COC(=O)CC1CCCC1", "% Inhibition": -21, "Z score": 3.06}
{"smiles": "C[C@H](NC(=O)CS(C)(=O)=O)c1ccc(F)cc1F", "% Inhibition": -4, "Z score": 0.56}
{"smiles": "O=C(Nc1nccs1)c1ccc2c(c1)C(=O)N(C[C@H]1CCCO1)C2=O", "% Inhibition": -5, "Z score": 0.89}
{"smiles": "O=C(C1CCCC1)N(CC1CCN(C2Cc3ccccc3C2)CC1)C[C@H]1CCCO1", "% Inhibition": -10, "Z score": 0.87}
{"smiles": "O=S(=O)(c1ccc(Br)c(Cl)c1)N(C[C@H](O)c1ccccc1)C1CC1", "% Inhibition": -9, "Z score": 1.22}
{"smiles": "COC(=O)C1CCCCCC1NC1CCN(C)C1=O", "note": "(stereo unspecified)", "% Inhibition": -9, "Z score": 1}
{"smiles": "COc1ccnc(N2CCN(S(=O)(=O)Cc3ccccc3)CC2)c1", "% Inhibition": -3, "Z score": 0.3}
{"smiles": "COc1ccc(-c2noc(-c3ccc(N4CCN(c5ccccc5OC)CC4)nc3)n2)cc1", "% Inhibition": -19, "Z score": 2.13}
{"smiles": "O=C(CCc1nc(-c2cc3ccccc3nc2O)no1)NCc1ccc(Cl)cc1", "% Inhibition": -11, "Z score": 2.08}
{"smiles": "CCCOc1cccc(CNCCCN(C)C)c1", "% Inhibition": 0, "Z score": -0.06}
{"smiles": "Cc1ccccc1CN1CCc2nc(N3CCC(C)CC3)ncc2C1", "% Inhibition": 0, "Z score": 0.06}
{"smiles": "N#Cc1cccnc1N1CC[C@H](c2ccccn2)C1", "% Inhibition": -1, "Z score": 0.24}
{"smiles": "CN(C)C(=O)c1ccc(CN2CCc3ccc(Cl)cc32)[nH]1", "% Inhibition": -15, "Z score": 1.58}
{"smiles": "COc1ccc(C(=O)N2CC[C@H](c3noc(-c4cccnc4)n3)C2)cn1", "% Inhibition": -9, "Z score": 1.11}
{"smiles": "O=C(NCC1(C2CC2)CC1)c1cnn2ncccc12", "% Inhibition": -7, "Z score": 1.03}
{"smiles": "COCC1(CNC(=O)c2ccc(-c3ccncc3C)cc2)CCC1", "% Inhibition": 8, "Z score": -1}
{"smiles": "CC(C)c1nc(Cn2nnc([C@@H](NC(=O)c3ccccc3)C(C)C)n2)cs1", "% Inhibition": -11, "Z score": 1.68}
{"smiles": "N#Cc1ccc(NC[C@H](O)c2cccc(Br)c2)nc1", "% Inhibition": -12, "Z score": 1.57}
